# From PubChem BioAssay AID1345082 (National Center for Advancing Translational Sciences (NCATS), 2018)
# The whole screen tested about 94,000 compounds, of which about 4,000 (4.3%) were called active. Inconclusive means that the source gave no clear call. Such entries were picked first, then a sample of the others. Calls follow the shape of the dose curve; as a rule, active = well fitted inhibition curve with a large enough effect; inconclusive = small, poorly fitted or top-dose-only effect; inactive = no such curve, though single readings can be large or run the other way. Potencies of inconclusive entries are doubtful fits and often do not repeat.
# Assay: Cytotoxic Profiling in NIH 3T3 Cell Line of Diverse Libraries Using Quantitative High-Throughput Screening; also: nearly all actives have a fitted effect of over 55% in size
# Conditions: NIH 3T3 viability, CellTiter-Glo ATP luminescence, 48-72 h; series mostly up to 96.7 µM
# Summary of the method: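 Viability of NIH 3T3 cells after 48 or 72 hr compound treatment at 37 °C was assessed by CellTiter-Glo, with luminescence imaged following a 10 min room-temperature step.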
# Potency is read from the fitted curve at half-maximal effect; tags tell the direction and shape of the fitted curve.
row,SMILES,Potency
1,COc1cccc(C(=O)N2CCCC(n3cc(-c4nc(C5CC5)no4)nn3)C2)c1 (stereo not drawn),"inconclusive: 39.8 µM [inhibitor, partial curve]"
2,O=C(NCC1(COc2cnccn2)C[C@@H](O)[C@@H](O)C1)c1cccnc1 (stereo partly drawn),inactive
3,CC(=O)Nc1ccc(CN2C[C@H](O)C[C@H]2c2nc(-c3cccc([N+](=O)[O-])c3)no2)cc1,"inconclusive: 100 µM [inhibitor, partial curve]"
4,Cc1cc2cc(-c3c(C)noc3C)nc(N3CCN(C)C(=O)C3)c2o1,"inconclusive: 28.2 µM [inhibitor, full curve]"
5,Cc1ccc(CN2Cc3[nH]cnc3C[C@H]2C(=O)N2CCC(Cc3ccccc3)CC2)cc1,active: 70.8 µM
6,CCOc1ncccc1C(=O)NC(C)c1cnc(-c2ccncc2)nc1C (stereo not drawn),"inconclusive: 56.2 µM [inhibitor, partial curve, poor fit]"
7,O=C(NCCc1ccc(Cl)cc1)C1CCCN1c1nc2ncccc2o1 (stereo not drawn),inactive
8,CC(C)C(=O)N1Cc2ccccc2CC2(CCN(CC3CCNC3)CC2)C1 (stereo not drawn),"inconclusive: 44.7 µM [inhibitor, partial curve, poor fit]"
9,Cc1ccc([S+](=O)([O-])N2CCCC(C(=O)N3CCC(N4CCCC4=O)CC3)C2)cc1 (stereo not drawn),"inconclusive: 39.8 µM [inhibitor, partial curve]"
10,CCCNC(=O)N1CCC(Cc2ccc(CCNC(C)=O)cc2)CC1,"inconclusive: 50.1 µM [inhibitor, partial curve, poor fit]"
11,Cc1ccc(Nc2ccnc(N3CCCN([S+](=O)([O-])c4cccs4)C3)n2)cc1,"inconclusive: 28.2 µM [inhibitor, full curve]"
12,O=C(NCCc1ccc(Cl)cc1)C1CN(c2ccc(F)cc2)C(=O)N1 (stereo not drawn),"inconclusive: 50.1 µM [inhibitor, partial curve, poor fit]"
13,O=C(c1cccc(Cl)c1)N1CCC(C(=O)N2CCCC(c3nc4ccncc4[nH]3)C2)CC1 (stereo not drawn),"inconclusive: 50.1 µM [inhibitor, single point]"
14,COc1ccccc1Nc1ccnc(N2CCCC(C(=O)NCCc3ccc(Cl)cc3)C2)n1 (stereo not drawn),"inconclusive: 10 µM [inhibitor, full curve, poor fit]"
15,CCc1cccc(NC(=O)C2CCCCC(=O)N2)c1 (stereo not drawn),inactive
16,O=C(Nc1ccccc1)[C@@H]1OCC(=O)N(C2CC2)[C@H]1c1ccccc1,inactive
17,O=C(NCCCc1ccccc1)C1CN(c2ccc(Cl)cc2)C(=O)N1 (stereo not drawn),inactive
18,CCOC(=O)[C@H]1C[C@]2(CCCCN(CCO)C2=O)N(C(=O)c2ccc(OC)cc2)[C@H]1c1ccco1,inactive
